# From a collection of fitness landscapes (doi:10.1126/science.1257360)
# Some of the results follow.
# B1: PhoQ; a variant is named by its letters at X, in order, P23837 (parent)
# chain: MKKLLRLFFPLSLRVRFLLATAAVVLVLSLAYGMVALIGYSVSFDKTTFRLLRGESNLFYTLAKWENNKLHVELPENIDKQSPTMTLIYDENGQLLWAQRDVPWLMKMIQPDWLKSNGFHEIEADVNDTSLLLSGDHSIQQQLQEVREDDDDAEMTHSVAVNVYPATSRMPKLTIVVVDTIPVELKSSYMVWSWFIYVLSANLLLVIPLLWVAAWWSLRPIEALAKEVRELEEHNRELLNPATTRELTSLVRNLNRLLKSERERYDKYRTTLTDLTHSLKTPLXXLQXXLRSLRSEKMSVSDAEPVMLEQISRISQQIGYYLHRASMRGGTLLSRELHPVAPLLDNLTSALNKVYQRKGVNISLDISPEISFVGEQNDFVEVMGNVLDNACKYCLEFVEISARQTDEHLYIVVEDDGPGIPLSKREVIFDRGQRVDTLRPGQGVGLAVAREITEQYEGKIVAGESMLGGARMEVIFGRQHSAPKDE
# Variants of: B1
# Experiment: enrichment ratio after two sorts for PhoP signalling (ratio (wild type AVST 3.29)); higher = more functional
# Conditions: with PhoP (E. coli)
row,Variant,enrichment ratio
1,GKKY,≤ 0.25
2,FPYV,≤ 0.25
3,GCCH,≤ 0.25
4,GIYS,≤ 0.25
5,VVHL,≤ 0.25
6,NNHT,≤ 0.25
7,SREG,≤ 0.25
8,EIWG,≤ 0.25
9,AWDH,≤ 0.25
10,KFWE,≤ 0.25
11,THWK,≤ 0.25
12,AKAR,≤ 0.25
13,FAER,≤ 0.25
14,LKCL,≤ 0.25
15,WFLE,≤ 0.25
16,QDCL,≤ 0.25
17,HDEA,≤ 0.25
18,FYDP,≤ 0.25
19,RVFS,≤ 0.25
20,ACCI,26.9
21,GPPF,≤ 0.25
22,EGHL,≤ 0.25
23,LPES,≤ 0.25
24,LDIL,≤ 0.25

row,Variant,enrichment ratio
1,IFAD,≤ 0.25
2,RGQP,≤ 0.25
3,TNYR,≤ 0.25
4,MYLD,≤ 0.25
5,THWW,≤ 0.25
6,EACK,≤ 0.25
7,TFTM,3.86
8,WLHG,≤ 0.25
9,RHFH,≤ 0.25
10,HGIG,≤ 0.25
11,YMLV,0.756
12,GDAG,≤ 0.25
13,SNLM,12
14,QFEF,≤ 0.25
15,QLQV,≤ 0.25
16,TWGG,≤ 0.25
17,ARMW,≤ 0.25
18,DMLA,≤ 0.25
19,TCVW,≤ 0.25
20,REAM,≤ 0.25
21,AKHD,≤ 0.25
22,SGCN,11.5
23,REHC,≤ 0.25
24,TYER,≤ 0.25

row,Variant,enrichment ratio
1,KRQV,≤ 0.25
2,GHGY,≤ 0.25
3,NSWN,≤ 0.25
4,QMSM,0.862
5,PKRT,≤ 0.25
6,MEMV,14.8
7,MIVH,≤ 0.25
8,TLGP,≤ 0.25
9,RQYL,≤ 0.25
10,TLSI,18.6
11,RMRA,≤ 0.25
12,DPWV,≤ 0.25
13,LQQC,≤ 0.25
14,YNIE,≤ 0.25
15,NGAD,≤ 0.25
16,DSAY,≤ 0.25
17,GFFE,≤ 0.25
18,RAYK,≤ 0.25
19,RQFF,≤ 0.25
20,LESP,≤ 0.25
21,AYLH,≤ 0.25
22,LTGL,≤ 0.25
23,HGYT,≤ 0.25
24,PLMS,≤ 0.25

row,Variant,enrichment ratio
1,LIIA,≤ 0.25
2,QYLG,≤ 0.25
3,WGAG,≤ 0.25
4,LMDG,≤ 0.25
5,ACCG,25.4
6,DFMP,≤ 0.25
7,HQDC,≤ 0.25
8,APVY,≤ 0.25
9,HWDQ,≤ 0.25
10,MTWC,≤ 0.25
11,AFNK,≤ 0.25
12,LNHN,≤ 0.25
13,MRGD,≤ 0.25
14,SYQF,≤ 0.25
15,NEVM,7.03
16,GSGH,≤ 0.25
17,NCLW,≤ 0.25
18,FPNS,≤ 0.25
19,MPAM,≤ 0.25
20,IKPH,≤ 0.25
21,VRRR,≤ 0.25
22,VFLY,≤ 0.25
23,IVDD,≤ 0.25
24,EYGT,≤ 0.25

row,Variant,enrichment ratio
1,IHYL,≤ 0.25
2,HAPK,≤ 0.25
3,KAIH,≤ 0.25
4,LVWD,≤ 0.25
5,PLSN,≤ 0.25
6,SDMV,10.1
7,THMM,17.6
8,PTRW,≤ 0.25
9,MATR,≤ 0.25
10,TGYV,9.15
11,AQEI,≤ 0.25
12,KFMI,≤ 0.25
13,MRQQ,≤ 0.25
14,WIKP,≤ 0.25
15,IPIC,≤ 0.25
16,MTFF,5.57
17,NMCL,≤ 0.25
18,KPFH,≤ 0.25
19,GSIP,≤ 0.25
20,FTTQ,≤ 0.25
21,QRDL,≤ 0.25
22,FHMQ,≤ 0.25
23,ATCH,≤ 0.25
24,RLQG,≤ 0.25

row,Variant,enrichment ratio
1,KNPH,≤ 0.25
2,RYMA,≤ 0.25
3,TRML,4.97
4,RFYL,0.349
5,HLYW,≤ 0.25
6,YFRI,≤ 0.25
7,AYSQ,≤ 0.25
8,VPMW,≤ 0.25
9,RCSQ,≤ 0.25
10,FAAM,≤ 0.25
11,SNWP,≤ 0.25
12,KQYP,≤ 0.25
13,GRLK,≤ 0.25
14,SVFD,≤ 0.25
15,AKMY,≤ 0.25
16,GLPR,≤ 0.25
17,QDGM,≤ 0.25
18,RCTC,≤ 0.25
19,FVME,≤ 0.25
20,ELRA,≤ 0.25
21,VYGW,≤ 0.25
22,LDGD,≤ 0.25
23,NFDK,≤ 0.25
24,NHND,≤ 0.25

row,Variant,enrichment ratio
1,WAWC,≤ 0.25
2,QMMK,≤ 0.25
3,EKLK,≤ 0.25
4,WDEH,≤ 0.25
5,LNHH,≤ 0.25
6,VNQD,≤ 0.25
7,ICFR,≤ 0.25
8,FACA,≤ 0.25
9,ATWC,≤ 0.25
10,GHFP,≤ 0.25
11,HMSV,≤ 0.25
12,HVKR,≤ 0.25
13,FLLP,≤ 0.25
14,SNAP,≤ 0.25
15,TPGD,≤ 0.25
16,FVFG,≤ 0.25
17,WTYH,≤ 0.25
18,IPKE,≤ 0.25
19,FMSY,≤ 0.25
20,RFGC,≤ 0.25
21,NLYP,≤ 0.25
22,MSAR,≤ 0.25
23,MVTA,≤ 0.25
24,NGPP,≤ 0.25

row,Variant,enrichment ratio
1,VHNV,≤ 0.25
2,ECRD,≤ 0.25
3,MECF,≤ 0.25
4,VYCR,≤ 0.25
5,EYRA,≤ 0.25
6,YEWF,≤ 0.25
7,YYTC,≤ 0.25
8,PYMC,≤ 0.25
9,SQQW,≤ 0.25
10,GFTE,≤ 0.25
11,ICPS,≤ 0.25
12,GQYQ,≤ 0.25
13,GEVG,8.67
14,FSSH,≤ 0.25
15,ICGT,≤ 0.25
16,SSWH,≤ 0.25
17,FLWS,≤ 0.25
18,GNAT,≤ 0.25
19,ACAT,0.287
20,WPAA,≤ 0.25
21,AFSH,≤ 0.25
22,ATEP,≤ 0.25
23,NMPF,≤ 0.25
24,MHIW,≤ 0.25

row,Variant,enrichment ratio
1,GLTT,≤ 0.25
2,QDEP,≤ 0.25
3,FPFG,≤ 0.25
4,KTTT,≤ 0.25
5,LKMM,≤ 0.25
6,HNHL,≤ 0.25
7,AMYN,≤ 0.25
8,RENC,≤ 0.25
9,SSNC,≤ 0.25
10,GHWI,≤ 0.25
11,ELNL,≤ 0.25
12,FFFC,≤ 0.25
13,LLTN,0.383
14,YPNT,≤ 0.25
15,INHM,≤ 0.25
16,IFFQ,≤ 0.25
17,AHIN,≤ 0.25
18,WHCQ,≤ 0.25
19,EHLI,≤ 0.25
20,VKDL,≤ 0.25
21,IWGL,≤ 0.25
22,QCKW,≤ 0.25
23,RAPN,≤ 0.25
24,FHAD,≤ 0.25

row,Variant,enrichment ratio
1,LTAE,≤ 0.25
2,MDDS,≤ 0.25
3,MPYW,≤ 0.25
4,LKLM,≤ 0.25
5,FPQL,≤ 0.25
6,YLIF,≤ 0.25
7,MNTH,≤ 0.25
8,YGPI,≤ 0.25
9,MGPY,≤ 0.25
10,IDDY,≤ 0.25
11,IAFD,≤ 0.25
12,PWET,≤ 0.25
13,PDSF,≤ 0.25
14,EVND,≤ 0.25
15,TPAH,≤ 0.25
16,IAVP,≤ 0.25
17,IVMN,≤ 0.25
18,HWKF,≤ 0.25
19,EAII,≤ 0.25
20,YYMN,≤ 0.25
21,NFYG,≤ 0.25
22,VMGT,≤ 0.25
23,SLDK,≤ 0.25
24,DAHL,0.257

row,Variant,enrichment ratio
1,RIVV,≤ 0.25
2,YAWF,≤ 0.25
3,QCGW,≤ 0.25
4,LMDY,≤ 0.25
5,DTRK,≤ 0.25
6,MELQ,3.81
7,KMSC,≤ 0.25
8,ICDQ,≤ 0.25
9,SIVH,9.21
10,FLTI,≤ 0.25
11,QVKL,≤ 0.25
12,RIFK,1.58
13,GPPA,≤ 0.25
14,YLIY,≤ 0.25
15,WLLS,≤ 0.25
16,LWDH,≤ 0.25
17,NDLA,≤ 0.25
18,YPSM,1.37
19,DCCK,≤ 0.25
20,SNWG,≤ 0.25
21,FFWF,≤ 0.25
22,SVRN,≤ 0.25
23,TCQR,4.53
24,LMGV,≤ 0.25

row,Variant,enrichment ratio
1,PWDY,≤ 0.25
2,VGTC,≤ 0.25
3,PQYF,≤ 0.25
4,RRYL,≤ 0.25
5,CACW,≤ 0.25
6,FVEL,≤ 0.25
7,EGVN,≤ 0.25
8,SYSY,≤ 0.25
9,ASIQ,5.62
10,WTTG,≤ 0.25
11,VYNS,≤ 0.25
12,NRRG,≤ 0.25
13,VIGL,≤ 0.25
14,KFMN,≤ 0.25
15,QSNG,5.88
16,FDQF,≤ 0.25
17,TLPG,≤ 0.25
18,HSSG,≤ 0.25
19,KDVT,≤ 0.25
20,DCSA,≤ 0.25
21,LYIF,≤ 0.25
22,SHRG,≤ 0.25
23,LGCP,≤ 0.25
24,FWYY,≤ 0.25

row,Variant,enrichment ratio
1,NTVN,≤ 0.25
2,GHVK,≤ 0.25
3,SQIF,10.7
4,EFSM,≤ 0.25
5,PNVI,≤ 0.25
6,NASM,≤ 0.25
7,PFMP,≤ 0.25
8,RIPH,≤ 0.25
9,SNYD,≤ 0.25
10,TDAA,5.51
11,VICC,≤ 0.25
12,KLMS,≤ 0.25
13,WEPR,≤ 0.25
14,VVMF,≤ 0.25
15,EDAW,≤ 0.25
16,FRAL,≤ 0.25
17,LYMS,≤ 0.25
18,EFIW,≤ 0.25
